According to the supplement of paper PMC7826260:
The other results are listed elsewhere or left out. Each Rep nickase domain was tested in vitro on the same pool of single strands (3 µM enzyme, 1 h, 37 °C); shown is the middle of each 90-letter strand. Values are log2 of uncut reads against the no-enzyme pool; more negative means more cut, near 0 not cut, and no call is made. Because reads are shares of a total, they shift together, so uncut sequences can rise above 0 when many others are cut.

Columns and labels:
Experiment in all cases: uncleaved DNA left, log2 of reads against the no-enzyme library (log2 ratio); higher = less cleavage (more negative = more Rep cleavage of the k-mer); sequences stand for … in CTCGTCCG…ACCGGAGA
[1] = system: T1, Rep nickase domain of Muscovy duck circovirus
T1 sequence (residues 1-111 of Rep, tag left off): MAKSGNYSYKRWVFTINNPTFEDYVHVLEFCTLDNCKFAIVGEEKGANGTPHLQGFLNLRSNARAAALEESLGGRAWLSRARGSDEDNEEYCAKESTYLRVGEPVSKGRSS
Procedure: (§1)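 A pool of 90-nt single-stranded DNAs with seven random bases just before the constant AC of the nick site (name = the seven bases) was cut by 3 µM recombinant His6-SUMO-tagged Rep nickase domain (300 nM DNA, 50 mM HEPES pH 8.0, 50 mM NaCl, 1 mM MnCl2, 1 h, 37 °C, three replicates). Uncut DNA was amplified and sequenced.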

[2] = system: T2, Rep nickase domain of banana bunchy top virus
T2 sequence (residues 1-94 of Rep, tag left off): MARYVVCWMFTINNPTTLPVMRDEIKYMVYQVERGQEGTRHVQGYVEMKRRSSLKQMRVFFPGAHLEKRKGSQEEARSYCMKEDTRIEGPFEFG
Procedure: as §1

[3] = system: T3, Rep nickase domain of cabbage leaf curl virus
T3 sequence (residues 1-116 of Rep, tag left off): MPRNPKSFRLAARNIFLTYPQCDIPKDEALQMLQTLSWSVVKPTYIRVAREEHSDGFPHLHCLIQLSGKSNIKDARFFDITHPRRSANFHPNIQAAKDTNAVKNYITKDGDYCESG
Procedure: as §1

[4] = system: T4, Rep nickase domain of chickpea chlorotic dwarf virus
T4 sequence (residues 1-124 of Rep, tag left off): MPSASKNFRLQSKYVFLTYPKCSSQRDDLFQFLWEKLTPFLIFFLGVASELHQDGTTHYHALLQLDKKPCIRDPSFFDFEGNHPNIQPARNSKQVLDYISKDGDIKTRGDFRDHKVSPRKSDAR
Procedure: as §1

[5] = system: T5, Rep nickase domain of faba bean necrotic yellows virus
T5 sequence (residues 1-98 of Rep, tag left off): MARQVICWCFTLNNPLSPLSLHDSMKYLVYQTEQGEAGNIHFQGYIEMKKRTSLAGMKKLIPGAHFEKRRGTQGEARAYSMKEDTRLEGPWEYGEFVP
Procedure: as §1

[6] = system: T6, Rep nickase domain of maize striate mosaic virus
T6 sequence (residues 1-117 of Rep, tag left off): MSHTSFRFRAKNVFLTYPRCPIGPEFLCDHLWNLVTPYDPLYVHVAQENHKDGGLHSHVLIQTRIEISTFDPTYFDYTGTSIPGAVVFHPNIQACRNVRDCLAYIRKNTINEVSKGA
Procedure: as §1

[7] = system: T7, Rep nickase domain of porcine circovirus 2
T7 sequence (residues 2-116 of Rep, tag left off): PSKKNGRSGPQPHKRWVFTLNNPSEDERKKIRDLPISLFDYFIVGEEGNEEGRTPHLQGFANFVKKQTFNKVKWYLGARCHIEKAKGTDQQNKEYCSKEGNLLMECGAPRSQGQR
Procedure: as §1

[8] = system: T8, Rep nickase domain of tomato golden mosaic virus
T8 sequence (residues 1-124 of Rep, tag left off): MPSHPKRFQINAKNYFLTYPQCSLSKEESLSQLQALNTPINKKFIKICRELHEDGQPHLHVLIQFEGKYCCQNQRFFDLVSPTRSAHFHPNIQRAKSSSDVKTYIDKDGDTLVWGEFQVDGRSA
Procedure: as §1

[9] = system: T9, Rep nickase domain of tomato yellow leaf curl virus
T9 sequence (residues 1-136 of Rep, tag left off): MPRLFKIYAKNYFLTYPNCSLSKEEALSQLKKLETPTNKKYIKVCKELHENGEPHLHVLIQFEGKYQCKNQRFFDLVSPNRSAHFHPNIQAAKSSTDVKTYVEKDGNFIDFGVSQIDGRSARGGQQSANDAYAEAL
Procedure: as §1

[10] = system: T10, Rep nickase domain of wheat dwarf virus
T10 sequence (residues 1-137 of Rep, tag left off): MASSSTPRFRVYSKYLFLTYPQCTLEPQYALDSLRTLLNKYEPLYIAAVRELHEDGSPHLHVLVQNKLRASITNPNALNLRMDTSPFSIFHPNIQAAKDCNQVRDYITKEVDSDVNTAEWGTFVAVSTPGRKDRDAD
Procedure: as §1

Sequence	uncleaved DNA left (log2) [1]	uncleaved DNA left (log2) [2]	uncleaved DNA left (log2) [3]	uncleaved DNA left (log2) [4]	uncleaved DNA left (log2) [5]	uncleaved DNA left (log2) [6]	uncleaved DNA left (log2) [7]	uncleaved DNA left (log2) [8]	uncleaved DNA left (log2) [9]	uncleaved DNA left (log2) [10]
GCGGTTA	0.149	0.0811	0.344	0.629	0.1	1.29	-0.0202	0.22	0.0547	0.0691
CGGCAAG	0.0344	0.103	-0.278	-0.166	-0.106	-0.534	0.235	0.0859	0.156	0.11
ACTTCAG	0.0958	0.0486	-0.852	-0.328	0.115	-1.15	0.237	0.06	0.109	-0.038
AAGTGGA	-0.0679	-0.0427	0.0714	0.28	-0.0811	0.274	-2.53	0.026	-0.158	-0.19
TCGTCCG	-0.00704	-0.0324	-0.055	0.528	-0.0436	0.769	0.00531	-0.0362	0.0538	-0.071
GGTCACC	0.12	0.078	0.472	1.14	-0.101	1.77	0.0457	-0.0455	0.106	0.146
CAGGCCG	-0.00664	-0.122	-0.893	-0.438	0.0341	-0.945	0.153	-0.0433	0.0552	-0.236
ATGCTGG	-0.00212	0.0149	-0.118	0.169	0.17	-0.36	0.116	0.039	0.0863	-0.0337
AAAAGTG	0.026	0.0338	-0.658	-0.749	-0.00611	-1.03	0.144	0.0737	0.0701	-0.00823
TCCTCAA	0.0595	-0.0495	-0.0217	-0.234	-0.118	-0.249	-0.0766	-0.0539	0.064	-0.026
ACTGAGG	-0.0575	0.1	-0.472	-0.328	-0.0791	-1.04	0.0796	-0.0531	-0.0141	-0.0765
AAGAGGC	0.0404	0.0583	0.133	0.173	-0.0664	-0.569	0.164	0.0272	-0.0699	0.0763
TTCGGGT	0.0579	0.011	0.225	0.553	0.107	1.1	0.141	0.0439	0.0326	-0.0927
GTTTGTC	0.0472	0.0889	0.436	1.21	0.0254	1.18	0.113	0.0887	0.188	0.121
AAACTGA	0.0709	0.0198	0.09	0.518	0.111	1.14	0.237	0.0878	-0.0634	0.0227
